Experimental data reported in patent US20120263739A1, “ANTI INTEGRIN ANTIBODIES LINKED TO NANOPARTICLES LOADED WITH CHEMOTHERAPEUTIC AGENTS” (MERCK PATENT GMBH, priority 2009, published 2012).

Columns and labels:
[1] = Zetapotential by Laser Doppler microelectrophoresis; assay type: physicochemical; details: mean ± SD; n = 3; 100% crosslinking
Description: (§1) Nanoparticles were analyzed with regard to particle diameter and polydispersity by photon correlation spectroscopy (PCS) using a Malvern Zetasizer 3000HSA (Malvern Instruments Ltd., Malvern, UK). The zetapotential was measured with the same instrument by Laser Doppler microelectrophoresis. Prior to both measurements the samples were diluted with filtered (0.22 μm) purified water. Particle content was determined by microgravimetry. For this purpose 50.0 μl of the nanoparticle suspension was pipetted into an aluminium weighing dish and dried for 2 h at 80° C. After 30 min of storage in an exsiccator the samples were weighed on a micro balance (Sartorius, Germany).

[2] = Particle content by microgravimetry; assay type: physicochemical; details: mean ± SD; n = 3; 100% crosslinking
Description: as §1

[3] = tested on: αvβ3 integrin positive melanoma cells M21; assay: Cellular binding of nanoparticulate formulations, flow cytometry (FACS); assay type: cell-based; details: 2 ng/μl, 4 h at 37° C.
Description: (§2) Cellular binding: αvβ3 integrin-positive melanoma cells M21 and αv-negative melanoma cells M21L are incubated with DI17E6-coupled nanoparticles (NP-DI17E6) or nanoparticles coupled to an unspecific control mAb IgG (NP-IgG). […] Both nanoparticle preparations show low binding to M21L cells (FIG. 4D).
(§3) FIG. 4: Cellular binding of unloaded and doxorubicin loaded nanoparticulate formulations. αvβ3 integrin positive melanoma cells M21 (A and C) and αv-defective melanoma cells M21L (B and D) were treated with 2 ng/μl of the different unloaded (A and B) or doxorubicin loaded (C and D) nanoparticulate formulations for 4 h at 37° C. (concentrations are calculated referred to DI17E6 or equivalent NP amounts). Flow cytometry (FACS) analysis was performed to quantify their cellular binding. The data is shown as histogram of the FL1-H-channel (autofluorescence of the nanoparticles). Green: NP-DI17E6 and NP-Dox-DI17E6 respectively, red: NP-IgG and NP-Dox-IgG respectively, blue: untreated control. […]
(§4) M21 or M21L cells were cultured in 24-well plates (Greiner, Frickenhausen, Germany) and treated with the different nanoparticle formulations for 4 h at 37° C. […] Control nanoparticles without DI17E6 modification were used in equivalent nanoparticle quantities. […] Nanoparticles could be detected at 488/520 nm.

[4] = tested on: αv-defective melanoma cells M21L; assay: as above; assay type: cell-based; details: 2 ng/μl, 4 h at 37° C.
Description: as §2, §3, §4

[5] = Antibody bound to nanoparticle surface (SEC of supernatant); assay type: physicochemical
Description: For the thiolation step of the antibodies, DI17E6 or IgG were dissolved in phosphate buffer pH 8.0 at a concentration of 1.0 mg/ml. For the introduction of thiol groups DI17E6 or IgG, respectively, were incubated with a 50 fold molar excess of 2-iminothiolane solution (c=1.14 mg/ml; 40.2 μl) for 2 h as previously described by Steinhauser et al. (2006). The antibodies were purified by size exclusion chromatography (SEC, D-Salt™ Dextran Desalting column). The resulting solutions contained thiolated antibody (DI17E6 or IgG, respectively) at a concentration of about 500 μg/ml. For the coupling reaction 1.0 ml of the sulfhydryl-reactive nanoparticle suspension was incubated with 1.0 ml of the thiolated DI17E6 or IgG, respectively, to achieve a covalent linkage between antibody and the nanoparticle system. For the preparation of samples with adsorptively attached antibody, 1.0 ml of the mPEG5000-SPA modified nanoparticles were incubated with 1.0 ml of thiolated DI17E6 or IgG, respectively. […] To determine unbound antibody the resulting supernatants were collected and analyzed by size exclusion chromatography (SEC) as described above. The amount of antibody bound to the nanoparticle surface was calculated as difference between the amount of antibody obtained after thiolation and purification and the amount of antibody determined in the supernatant obtained after the conjugation step.

[6] = tested on: αvβ3 positive melanoma cells M21 on vitronectin; assay: Kinetic of cell detachment, transmitted light time lapse microscopy; assay type: cell-based; details: total incubation time 1-2 d
[7] = tested on: αvβ3 integrin positive melanoma cells M21; assay: Cell detachment from vitronectin coated surface; assay type: cell-based; details: 4 ng/μl, 4 h at 37° C.
Description: FIG. 9: Cell detachment from vitronectin coated surface. For cell detachment assay, 96-well ELISA plates were coated with vitronectin and cells were allowed to attach and spread for 1 h. Then, 4 ng/μl of free DI17E6 or the different unloaded or doxorubicin nanoparticulate formulations were added and the plates were incubated for additional 4 h at 37° C. to induce detachment (concentrations are calculated referred to DI17E6 or equivalent NP amounts). Detached cells were removed and remaining attached cells were stained with CyQUANT GR and counted against untreated control as described in the manufacturer's instructions manual. (Internal control of each experiment n=10, one representative experiment out of 9 independent experiments is shown.)
For cell detachment assays, 96-well ELISA plates were coated with vitronectin as described above. After blocking, cells were allowed to attach and spread for 1 h in cell adhesion medium. Then, 4 ng/μl or 10 ng/μl of either free DI17E6 or the different nanoparticulate formulations (referred to free mAb) were added and the plates were incubated for additional 4 h at 37° C. to induce detachment. Subsequently, plates were washed and processed as for cell adhesion assay. Specific inhibition of attachment or induction of detachment were determined relative to vitronectin-coated surfaces blocked with BSA.

[8] = Particle diameter and polydispersity by photon correlation spectroscopy; assay type: physicochemical; details: mean ± SD; n = 3; 100% crosslinking
Description: as §1

B1: NP-DI17E6 (conjugate)
heavy: QVQLQQSGGELAKPGASVKVSCKASGYTFSSFWMHWVRQAPGQGLEWIGYINPRSGYTEYNEIFRDKATMTTDTSTSTAYMELSSLRSEDTAVYYCASFLGRGAMDYWGQGTTVTVSSASTKGPSVFPLAPCSRSTSESTAALGCLVKDYFPEPVTVSWNSGALTSGVHTFPAVLQSSGLYSLSSVVTVPSSNFGTQTYTCNVDHKPSNTKVDKTVEPKSSDKTHTCPPCPAPPVAGPSVFLFPPKPKDTLMISRTPEVTCVVVDVSHEDPEVQFNWYVDGVEVHNAKTKPREEQAQSTFRVVSVLTVVHQDWLNGKEYKCKVSNKGLPAPIEKTISKTKGQPREPQVYTLPPSREEMTKNQVSLTCLVKGFYPSDIAVEWESNGQPENNYKTTPPMLDSDGSFFLYSKLTVDKSRWQQGNVFSCSVMHEALHNHYTQKSLSLSPGK
light: DIQMTQSPSSLSASVGDRVTITCRASQDISNYLAWYQQKPGKAPKLLIYYTSKIHSGVPSRFSGSGSGTDYTFTISSLQPEDIATYYCQQGNTFPYTFGQGTKVEIKRTVAAPSVFIFPPSDEQLKSGTASVVCLLNNFYPREAKVQWKVDNALQSGNSQESVTEQDSKDSTYSLSSTLTLSKADYEKHKVYACEVTHQGLSSPVTKSFNRGEC
modifications: left off: another chain or arm of the molecule; things letters cannot carry; small tags and cut ends
- Zetapotential [1]: −37.4 ± 2.9 mV
- Particle content [2]: 15.92 ± 0.60 mg/mL
- Cellular binding to M21 cells [3]: higher binding to M21 cells than NP-IgG
- Cellular binding to M21L cells [4]: comparable binding
- Covalent linkage of antibody to the particle surface ([5]; covalent linkage): 14-18 μg antibody/mg nanoparticle
- Antibody binding efficiency ([5]; mean ± SD, n = 3, antibody per mg nanoparticle): 16.10 ± 1.90 µg/mg
- Detachment [h after incubation] [6]: 2 to 22 h
- Cell detachment from vitronectin coated surfaces [7]: cell detachment of αvβ3 positive melanoma cells M21 from vitronectin coated surfaces is also possible
- Particle diameter [8]: 181.4 ± 16.4 nm
- Polydispersity [8]: 0.026 ± 0.013
